The list shows a part of the results.

This test concerns PfSIP2 AP2 domain 1 (GST-tagged). Put plainly: gcPBM binding intensity (ln(normalized median fluorescence intensity)); higher = stronger DNA binding. Put shortly:
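Plasmodium falciparum DNA-binding domains carrying a GST tag were expressed in E. coli and applied for 1 h, at about 25 μg on average, to an Agilent 4 × 180k array. The array held primer-extended double-stranded 36-bp intergenic genomic probes together with negative controls, and binding took place in 1× PBS with 1% milk, 0.2 mg/ml BSA, 0.5% salmon testes DNA and 0.03% Triton X-100. An Alexa488 anti-GST antibody detected bound protein, and the array was scanned at 488 nm. Binding intensity is taken as the highest Masliner-normalised natural-log median intensity across replicate spots of either probe orientation.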
As for “GTATATTTTATTTTATGTACATATTCATTTTTTATT [XGTACX_site561]”, the “gcPBM binding intensity (ln)” value was 7.68.
Take “TTATATATATGACTTTGTACATATACATATTTTTTA [XGTACX_site4669]”: the “gcPBM binding intensity (ln)” value came to 6.7.
In the case of “TATTATATATATGCACGTACAAAAATAATAAAGGTA [XGTACX_site3506]”, the “gcPBM binding intensity (ln)” value is 7.71.
Turning to “ATTTTTTTACTGGATCCATATTTGCTTTTTTATTTA [CACACA_negctrl_site1108]”, the “gcPBM binding intensity (ln)” value came to 6.83.
On to “GTGGATATATGTATATGTACATATGTATGTATATAT [XGTACX_site2412]”, for which the “gcPBM binding intensity (ln)” value came to 7.44.
The result for “TTTAAAATTTAATTTTGTACATATACCAATTTTATT [XGTACX_site448]” reads 6.85.
“AATTAGCATAAATGGGTGCTACACAAAAATGCATGT [GTGCAC_site9640]”: the “gcPBM binding intensity (ln)” value is 9.7.
The result for “ATATAAATATGAAAAAGTACAAGCCATCAAGAAATC [XGTACX_site8140]” reads 7.19; that for “AATTTTTTATTCTTTGCATGTCATCATATATAATAT [TGCATGCA_site549]”, 7.31.
As for “ATATAATGTTAGGGTAGAGGAAGTAACTAATATAAA [CACACA_negctrl_site1153]”, the “gcPBM binding intensity (ln)” value is 6.99.
On to “ATATAATATATGTTATGTACATAGTTTTTATTGTTC [XGTACX_site7438]”, for which the “gcPBM binding intensity (ln)” value was found to be 7.02.
Next, “AATATATAATCAGATGAATTTTTTTTTTTTTTTTCA [CACACA_negctrl_site534]”: 6.53; “TATAAATATTATAATTGTACATATTATAAAAATTTT [XGTACX_site2719]”: 6.98.
Consider “AGCAACTAAAAAGGATACCCCATTAAAAAAAAATTA [XGTACX_negctrl_site489]”, for which the “gcPBM binding intensity (ln)” value amounted to 6.62.
On to “TGTGTATAAAAAAAGTGTACACAAAGTAAGACTTTA [XGTACX_site3759]”, for which the “gcPBM binding intensity (ln)” value is 7.57.
Next, “TACCAAAAAACGGCACGCATATGTATAAGAATATGT [XGTACX_negctrl_site470]”: 7.07; “AAATATATAAAAGTATGTACATATGAAAAATATATA [XGTACX_site6165]”: 7.22.
As to “TTATATAACATAACGATGTTTCAAAACATATTGTAT [CACACA_negctrl_site997]”, the “gcPBM binding intensity (ln)” value was 6.94.
Regarding “TTATAAAGAATTAGGAGTACAAATGCATATATAATA [XGTACX_site6580]”, the “gcPBM binding intensity (ln)” value turned out to be 7.3.
The result for “TCTTACACTAATAAATGTACATACAAAAAATCTATT [XGTACX_site1379]” reads 7.21; that for “TACCCACTAAAATACACACACACACCCACATATATA [CACACA_site6141]”, 7.17.
With “AATTTGAATATTTGATGTACAAAGTTTTTTAATGTT [XGTACX_site3249]”, the “gcPBM binding intensity (ln)” value came to 6.94.
For “GAGAGGATAGTTCACAGTACCCAGTAACTCTACGGA [XGTACX_site4876]”, the “gcPBM binding intensity (ln)” value was 6.61.
As for “GTACCAACAGCACTACTTCTCGCCATTTTCTTGTAG [XGTACX_negctrl_site97]”, the “gcPBM binding intensity (ln)” value turned out to be 7.28.
On to “AAATGTATAATTTTTTAATACACTTATTTAAAATAA [CACACA_negctrl_site797]”, for which the “gcPBM binding intensity (ln)” value stood at 6.86.
On to “ATAAATATAACATATTGTACCCTTAAAAAGGAACAA [XGTACX_site352]”, for which the “gcPBM binding intensity (ln)” value turned out to be 6.86.
“CTCAAATAACTTTTTACACACATTATTTGAAATAAG [CACACA_site6722]”: the “gcPBM binding intensity (ln)” value turned out to be 7.19.
For the sequence “ATATGAATGATCGTACGTACTTACATATTTATAAAG [XGTACX_site8041]”, the “gcPBM binding intensity (ln)” value stood at 7.
Next, “CAGAATACATACATTACACACAAATTTAAGTATATA [CACACA_site1781]”: 6.95; “TATGAGAACAAACATTGTACAATAAAAAGTAGATAT [XGTACX_site920]”: 7.28.
“ACAAATAAAAAAATTACACACATATAAAATATAGAT [CACACA_site6756]”: the “gcPBM binding intensity (ln)” value was found to be 6.78.
The result for “AGGAAAATAATTAAAGCATGCTCATTATGAAATATA [TGCATGCA_site855]” reads 6.79; that for “AATACATGAACTTAAAGTACTAAAAAAAAAATAATA [XGTACX_site1956]”, 6.92.
In the case of “CATATAAGACAAAAGGTGCAATTTTAATGCTTTTAT [GTGCAC_site9432]”, the “gcPBM binding intensity (ln)” value was found to be 9.98.
In the case of “AACCCTTTTGATTTTTCTTTTTTTTTTTTTTTAAAT [CACACA_negctrl_site1667]”, the “gcPBM binding intensity (ln)” value turned out to be 6.65.
Consider “AGAAGGATATTATGAAGTACACATATTGTATATGGT [XGTACX_site7503]”, for which the “gcPBM binding intensity (ln)” value was 6.79.
Next, “ACAGTTTGTCTGAGTAGTACATAAATACTTGAAAGG [XGTACX_site7792]”: 7.22; “TAGTAAAATGGAACACGTACATATATCTATGTATAA [XGTACX_site6103]”: 6.79; “CCATATATAATGACATGTACTCAAAAAAAAAAAAAA [XGTACX_site685]”: 7.32.
Turning to “TTTTTAAAAAAAAATAGAGAGTCAAAGTATGTGGCG [CACACA_negctrl_site194]”, the “gcPBM binding intensity (ln)” value came out at 7.33.
As for “ATACATATATATATATGTACATATATTTATATTTAT [XGTACX_site3155]”, the “gcPBM binding intensity (ln)” value is 7.36.
Consider “TTTCTCTTTTTTTGGGGTACAACCAATCCTATAATA [XGTACX_site297]”, for which the “gcPBM binding intensity (ln)” value was found to be 7.08.
Next, “TAATTCAAACGTGTATGTATATTACTCGAAGAAATA [CACACA_negctrl_site1779]”: 6.86; “AAGTTCAAAATAAATGGTACAGAAGTATATATATCA [XGTACX_site174]”: 6.92.
The result for “TAAAAAAAGAGATATTGTACACAAAAAAATTTTACT [XGTACX_site1342]” reads 7.05; that for “TAGAAAAAAAAATACATACACACAATATATTTATTT [CACACA_site3123]”, 6.74; that for “AAAATCTAGGTATTTATACACACTAATATAATATAC [CACACA_site8108]”, 7.
The result for “TATATATTTGTGAAAATATTAAAATAAATAAATAAA [CACACA_negctrl_site295]” reads 7.05; that for “ATATATAATATAATATGTACATATAATCAATCCTGT [XGTACX_site8694]”, 7; that for “ATTTAGTATTCGAAACGTACACATATATATATATAT [XGTACX_site3910]”, 9.5.
Take “ATATTTTTTTTCTTCACACACATGAGTTATAAATAA [CACACA_site7498]”: the “gcPBM binding intensity (ln)” value is 7.43.
Consider “AATGAAACAATACCCAGTAAAAAAAAAAAATAAATA [TGCATGCA_negctrl_site205]”, for which the “gcPBM binding intensity (ln)” value was 6.69.
Consider “TGTAATCTGGAGAAGAGTACACAGTATCTGGTAGCT [XGTACX_site4935]”, for which the “gcPBM binding intensity (ln)” value stood at 6.95.
The result for “GGACGTATTAAAAGGCGTACACTAAATATTTTATGT [XGTACX_site146]” reads 7.05; that for “TAATATTTATATAATTGTACTTTGTTTGTAAATCCA [XGTACX_site7292]”, 6.72.
With “ATTATAATTTTGTAAAGTACATATTATTATATATTA [XGTACX_site7191]”, the “gcPBM binding intensity (ln)” value was found to be 6.81.
As for “TATTTATATAATCCTATAATATTACTACTATCTTTA [GTGCAC_negctrl_site342]”, the “gcPBM binding intensity (ln)” value is 6.84.
Consider “AAGATAATTACGCACACACACACACGCCCACAACTA [CACACA_site7255]”, for which the “gcPBM binding intensity (ln)” value is 7.34.
As to “AAGGTAAAATATAAGTGTACTTTTTCTTAATCTTCG [XGTACX_site514]”, the “gcPBM binding intensity (ln)” value came to 7.07.
Turning to “ATACACAAATGCATACGTACATATATATATATATAT [XGTACX_site3504]”, the “gcPBM binding intensity (ln)” value was 9.8.
With “CATATAAGAATCTTCTGTACTTATAAGAAAAGACAT [XGTACX_site8135]”, the “gcPBM binding intensity (ln)” value is 6.97.
The result for “TAAAACAAAATAACATGTACAAAAAAAAAAAAAAAA [XGTACX_site2915]” reads 7.1; that for “AAAAAAAAAAAAACAACACACAATGTTTTATTTTAC [CACACA_site1613]”, 7.09; that for “ATGTAATATGTTCATGCATGTAAAATTACATTTAGA [TGCATGCA_site852]”, 6.83.
Take “ATATCTATAATAAACACACAAATAGATATAACATAT [CACACA_site7702]”: the “gcPBM binding intensity (ln)” value was found to be 7.07.
On to “AAAAAAAAATTAAAAACACACATATATATATATATA [CACACA_site1580]”, for which the “gcPBM binding intensity (ln)” value was determined as 9.69.
Turning to “TATAAATAAAGACTTTTTTCTAACTTTTTTTTGTAT [CACACA_negctrl_site1015]”, the “gcPBM binding intensity (ln)” value worked out at 6.6.
The result for TATATATATATATATGTGCACATTTATTGCCTTTGC reads 9.4.
Consider “AAAATTTAATATGAATGTACATAAAAAAAAAAAAAA [XGTACX_site6719]”, for which the “gcPBM binding intensity (ln)” value was determined as 7.03.
As for “TAAGTATATTTCTGCACACAAAAAAAAAAACCAAAA [CACACA_site4056]”, the “gcPBM binding intensity (ln)” value amounted to 7.18.
Next, “ACTCTCTTATATTAAACACACATATATATATGTATA [CACACA_site2703]”: 7.52; “TCAAACAAAAAAGAAACACACACTAATTAAATTTTC [CACACA_site1101]”: 6.75; “AATAATTTGAAGGTGATAGTATTACATGGGAAATCA [CACACA_negctrl_site301]”: 6.91.
On to “AAATCGAACAAATTATGTACTAAAAAAAAAATTTAT [XGTACX_site6399]”, for which the “gcPBM binding intensity (ln)” value is 6.89.
Take “GTACATATAAATATTACACACATTTTCATTTTTAAC [CACACA_site1986]”: the “gcPBM binding intensity (ln)” value was 7.16.
Next, “TTATATGCATCCAAAAAGGAATGTTTTTAGAGAATC [CACACA_negctrl_site1062]”: 6.8.
The result for “ATCTTTCGAACATGTACACACAGAAAAAAAAAAAAA [CACACA_site5393]” reads 7.6.
Take “GTGTAGGCAAAAAGTTGTACGCCTAAAATCTATATA [XGTACX_site8912]”: the “gcPBM binding intensity (ln)” value was determined as 6.96.
As for “TGTATAGGTACAATAATTATAGAGTAATTGACATTA [GTGCAC_negctrl_site183]”, the “gcPBM binding intensity (ln)” value turned out to be 6.88.
Take “TAAAAAGTATATGGTCGTACACTTTTGATTAATACA [XGTACX_site7804]”: the “gcPBM binding intensity (ln)” value was 6.87.
With “TTATTTTTTTCAACAAGTACTAATACAAAATAAAAC [XGTACX_site6460]”, the “gcPBM binding intensity (ln)” value was 7.37.
On to “GATTAAATCGATAATACACACTAAATGTAAAACATT [CACACA_site4248]”, for which the “gcPBM binding intensity (ln)” value was 6.82.
Next, “TTGTATTATTAAATTATAAAACCTATAATTATGGAT [GTGCAC_negctrl_site340]”: 6.72; “TGATAACTAAATACATGTACAAATTAAAAAGAAAAA [XGTACX_site3080]”: 7.01.
“TAATGATTATATGACTGTACATTTGTAGGTATAATT [XGTACX_site3373]”: the “gcPBM binding intensity (ln)” value is 7.14.
For the sequence “CATATTTATAAATATAAACACACAACATTATATGCA [CACACA_site9065]”, the “gcPBM binding intensity (ln)” value was 7.04.
Turning to “GCAAAATAAAGAAGCACACAAAAATGAAATATATAT [CACACA_site3651]”, the “gcPBM binding intensity (ln)” value amounted to 7.07.
